Data published in patent US9308215B2, “Avermectins and milbemycins as anti-mycobacterial agents” (priority 2013, dated 2016).
≈ marks a conversion by molar mass, not a printed value.

Tested on: M. tuberculosis
Assay: microbe, parasite or virus in culture
Assay type: cell-based
Settings: Mycobacterium tuberculosis, H37RV; for MIC90: read-out: In vitro MIC90, strain H37Rv, WT; for MIC: read-out: MIC values

Row | Compound | MIC90 | MIC
1 | CO/N=C1\C[C@]2(C[C@@H]3C[C@@H](C/C=C(\C)C[C@@H](C)/C=C/C=C4\CO[C@@H]5[C@H](O)C(C)=C[C@@H](C(=O)O3)[C@]45O)O2)O[C@H](/C(C)=C/C(C)C)[C@H]1C [Moxidectin] | 3 µg/mL (≈ 4.69 µM) | 3 µg/mL (≈ 4.69 µM)
2 | CO[C@H]1C[C@H](O[C@@H]2/C(C)=C/C[C@@H]3C[C@@H](C[C@]4(CC[C@H](C)[C@@H](C5CCCCC5)O4)O3)OC(=O)[C@@H]3C=C(C)/C(=N/O)[C@H]4OC/C(=C\C=C\[C@@H]2C)[C@]43O)O[C@@H](C)[C@@H]1O [Selamectin] | 3 µg/mL (≈ 3.9 µM) | 3 µg/mL (≈ 3.9 µM)
